Source: the RNAGym collection of RNA variant scans (doi:10.7554/elife.90254)
Read counts are not given, so values of variants with three or more changes are uncertain.

B1: LINE1-mini (parent)
chain: GGCAGAGCUCAACACAGCGUGGCAAAGUGGCUGUGGCUAGACUGCC

Variants of: B1
Assay: self-cleavage, relative activity (ratio to wild type); higher = more cleavage; in vitro, sequencing; the parent is a self-cleaving ribozyme

| Variant | self-cleavage |
| --- | --- |
| G17U G33C G40A G44C | 0.04 |
| G17U G35A A39U | 0.02 |
| G17U G35A U43C G44C | 0.02 |
| G17U G35U C45G | 0.03 |
| G17U G36U C42U | 0.02 |
| G17U G40C A41U U43G | 0.09 |
| G17U G40U G44U | 0.02 |
| G17U U20A A25C | 0.07 |
| G17U U20A G36C C37A U38G G40A | 0.03 |
| G17U U20A U34A G36A | 0.01 |
| G17U U20C A24C U34G C45G | 0.01 |
| G17U U20C G27A C42G | 0.02 |
| G17U U20C G30C | 0.92 |
| G17U U20C U38C | 0.07 |
| G17U U20G C23G | 0.05 |
| G17U U20G G21C | 0.37 |
| G17U U28A G33C C46A | 0 |
| G17U U28A G44A C46U | 0.08 |
| G17U U28A U34G | 0.02 |
| G17U U28C C45A | 0.44 |
| G17U U28G G36A G40C C45U | 0.01 |
| G17U U28G G40A | 0.06 |
| G17U U32C C46A | 0.06 |
| G17U U34C C37A G40U U43A | 0.19 |

| Variant | self-cleavage |
| --- | --- |
| G17U U34G A41U | 0.06 |
| G17U U34G G40U | 0.09 |
| G17U U38A C45G | 0.03 |
| G17U U43C C45U C46G | 0.08 |
| C18A A24C A25U A26C | 0.01 |
| C18A A24C A26U | 0.1 |
| C18A A24C C45A | 0.04 |
| C18A A24G G27A C45U | 0.27 |
| C18A A24G U28G G30U | 0.05 |
| C18A A24G U32C | 0.02 |
| C18A A24U A26U U28G G33U | 0.01 |
| C18A A24U C31U G33C G40A | 0.03 |
| C18A A24U G29C A39G | 0.04 |
| C18A A24U G36C | 0.06 |
| C18A A24U U28G | 0.06 |
| C18A A25C G44C | 0.1 |
| C18A A25C U34G | 0.03 |
| C18A A25G C37U | 0.03 |
| C18A A25G C45G | 0.09 |
| C18A A25U A26G | 0.17 |
| C18A A26C A41C | 0.01 |
| C18A A26C G33C G36A | 0 |
| C18A A26C G44A | 0.07 |
| C18A A26C U32A | 0.01 |

| Variant | self-cleavage |
| --- | --- |
| C18A A26C U34G C37A A41G C42A | 0.01 |
| C18A A26G A41G | 0.16 |
| C18A A26G U32C A41G | 0 |
| C18A A26U A39U C46A | 0.04 |
| C18A A26U C31U U34A | 0.02 |
| C18A A26U G29U C45A | 0.07 |
| C18A A26U G33C C45U | 0.04 |
| C18A A26U G36A C46G | 0.02 |
| C18A A26U U28G | 0.45 |
| C18A A26U U28G G30U G33U C46U | 0.02 |
| C18A A26U U38C | 0.04 |
| C18A A39G C46G | 0.07 |
| C18A A39G G40U | 0.03 |
| C18A C23A A24U | 0.58 |
| C18A C23A A25C G30C C42G | 0.45 |
| C18A C23A C45G | 0.05 |
| C18A C23A C46G | 0.26 |
| C18A C23A G33A C42A U43G | 0.11 |
| C18A C23G A25U | 0.05 |
| C18A C23G A39U C42G | 0.02 |
| C18A C23G G27A | 0.19 |
| C18A C23G G27C U28G G29U U43G | 0.13 |
| C18A C23G G33U | 0.02 |
| C18A C23U C42U | 0.14 |

| Variant | self-cleavage |
| --- | --- |
| C18A C23U G33C | 0.01 |
| C18A C23U U28A G35C A39C | 0 |
| C18A C23U U32C | 0.05 |
| C18A C31A A39C | 0.01 |
| C18A C31A C46A | 0.15 |
| C18A C31G G33U A39G G40A | 0.03 |
| C18A C31G G35U | 0.03 |
| C18A C37A C42U C46G | 0.03 |
| C18A C37G C46G | 0.08 |
| C18A C37U G40A | 0.01 |
| C18A C42G C45U | 0.02 |
| C18A C42G C46U | 0.03 |
| C18A G19A G29A G33U | 0.07 |
| C18A G19A G35U C42G | 0.02 |
| C18A G19A G36U G40A | 0.03 |
| C18A G19A U20A | 0.73 |
| C18A G19C A24C C31G C45A | 0.03 |
| C18A G19C A25U G36U | 0.06 |
| C18A G19C A41G | 0.15 |
| C18A G19C C23U U43G | 0 |
| C18A G19C C31G | 0.03 |
| C18A G19C G30U U34C | 0.04 |
| C18A G19C U20G A26C G36A | 0.06 |
| C18A G19U A24C G30C U34C U38C | 0.1 |

| Variant | self-cleavage |
| --- | --- |
| C18A G19U A24U G27C U43G | 0.08 |
| C18A G19U A24U U43A | 0.01 |
| C18A G19U C42G | 0.01 |
| C18A G19U G21U A26C | 1.85 |
| C18A G19U G27A G40U A41C C42U | 0.11 |
| C18A G19U G29A | 1.25 |
| C18A G19U U20A C42A | 0.01 |
| C18A G21A G29C | 2.21 |
| C18A G21A G30U C37U C46U | 0.07 |
| C18A G21A U32A G44U | 0.03 |
| C18A G21C C37G | 0 |
| C18A G21C G36U A39G | 0.03 |
| C18A G21U A24U | 1.77 |
| C18A G21U A26U U38G | 0.02 |
| C18A G21U A39U A41U G44A | 0.04 |
| C18A G21U A41G | 0.25 |
| C18A G21U C37A C46A | 0.27 |
| C18A G21U C45U | 0.38 |
| C18A G21U G29C C45U C46A | 0.14 |
| C18A G21U G30U | 0.42 |
| C18A G21U U32C C45G | 0.02 |
| C18A G21U U43C | 0.1 |
| C18A G22A A24C | 2.16 |
| C18A G22A A25U | 0.31 |

| Variant | self-cleavage |
| --- | --- |
| C18A G22A C37U G44C | 0 |
| C18A G22A G27U U34G G44U | 0.02 |
| C18A G22A G35C | 0.06 |
| C18A G22A G40A | 0.08 |
| C18A G22C A26C U32G G40A | 0.01 |
| C18A G22C C46A | 0.15 |
| C18A G22C G27C U32A | 0.01 |
| C18A G22C U32A G33U G40A | 0.02 |
| C18A G22C U32A G35C U38G C45G | 0.01 |
| C18A G22U A25C | 0.66 |
| C18A G22U C23A | 1.12 |
| C18A G22U C23A C42G | 0.03 |
| C18A G22U C23U G29U C46A | 1.82 |
| C18A G22U C37A C45A | 0.12 |
| C18A G27A G29C | 1.23 |
| C18A G27A G33C | 0.05 |
| C18A G27A G36A C45A | 0.05 |
| C18A G27A U28A | 0.21 |
| C18A G27C C37A U43A | 0 |
| C18A G27C G29C U43A | 0.06 |
| C18A G27U C31A U38A C42U | 0.07 |
| C18A G27U G29C | 2.38 |
| C18A G27U G29U G36U C42A | 0 |
| C18A G27U U28C | 0.04 |

| Variant | self-cleavage |
| --- | --- |
| C18A G27U U43C G44U | 0.05 |
| C18A G29A C37A A39G | 0.03 |
| C18A G29A U32C C42U C45A C46U | 0.02 |
| C18A G29C C31A C37G | 0.02 |
| C18A G29C C37U | 0.04 |
| C18A G29C U32A C45A | 0.01 |
| C18A G29U C37U | 0.01 |
| C18A G29U U32G G33U C37A | 0.05 |
| C18A G29U U34C | 0.09 |
| C18A G30A A39G G44A | 0.06 |
| C18A G30A C31U G36C | 0.05 |
| C18A G30A G35U A41G | 0.02 |
| C18A G30A U34G C37G | 0.01 |
| C18A G30C U34C C45A | 0.01 |
| C18A G30U C42G U43A | 0 |
| C18A G30U C45G | 0.53 |
| C18A G30U U34A U43A | 0.06 |
| C18A G33C G40A | 0.02 |
| C18A G33U G36A | 0.06 |
| C18A G35A A41U | 0.01 |
| C18A G35A C45A | 0.08 |
| C18A G35A G36A | 0.12 |
| C18A G35C A41G C42G | 0.06 |
